Laboratory results: a collection of fitness landscapes (doi:10.1126/science.1257360)
The list shows a part of the results.

B1: PhoQ; a variant is named by its letters at X, in order, P23837 (parent)
chain: MKKLLRLFFPLSLRVRFLLATAAVVLVLSLAYGMVALIGYSVSFDKTTFRLLRGESNLFYTLAKWENNKLHVELPENIDKQSPTMTLIYDENGQLLWAQRDVPWLMKMIQPDWLKSNGFHEIEADVNDTSLLLSGDHSIQQQLQEVREDDDDAEMTHSVAVNVYPATSRMPKLTIVVVDTIPVELKSSYMVWSWFIYVLSANLLLVIPLLWVAAWWSLRPIEALAKEVRELEEHNRELLNPATTRELTSLVRNLNRLLKSERERYDKYRTTLTDLTHSLKTPLXXLQXXLRSLRSEKMSVSDAEPVMLEQISRISQQIGYYLHRASMRGGTLLSRELHPVAPLLDNLTSALNKVYQRKGVNISLDISPEISFVGEQNDFVEVMGNVLDNACKYCLEFVEISARQTDEHLYIVVEDDGPGIPLSKREVIFDRGQRVDTLRPGQGVGLAVAREITEQYEGKIVAGESMLGGARMEVIFGRQHSAPKDE

Variants of: B1
Assay: enrichment ratio after two sorts for PhoP signalling (ratio (wild type AVST 3.29)); higher = more functional
Conditions: with PhoP (E. coli)

Variant | enrichment ratio
FVTT | ≤ 0.25
SHYK | ≤ 0.25
NPDE | ≤ 0.25
QAVH | ≤ 0.25
TEGM | 4.56
PYYH | ≤ 0.25
PVFW | ≤ 0.25
HDMH | ≤ 0.25
DPQR | ≤ 0.25
RFMC | 1.4
RRTA | ≤ 0.25
TGFT | 3.02
TFLC | 2.75
YLPP | ≤ 0.25
RLIG | ≤ 0.25
LQWP | ≤ 0.25
LHIS | ≤ 0.25
RTDT | ≤ 0.25
YQEF | ≤ 0.25
FFRC | ≤ 0.25
MDCW | ≤ 0.25
LFQI | ≤ 0.25
SNNV | 5.17
AMQN | ≤ 0.25

Variant | enrichment ratio
IVYD | ≤ 0.25
TPLF | ≤ 0.25
YTMI | 6.21
WPNM | ≤ 0.25
KGYT | ≤ 0.25
NLMP | ≤ 0.25
QPSI | ≤ 0.25
WGCS | ≤ 0.25
WEYN | ≤ 0.25
NEQA | ≤ 0.25
PLIF | ≤ 0.25
ECTW | ≤ 0.25
MTKI | ≤ 0.25
SRQQ | ≤ 0.25
HNLM | ≤ 0.25
SNER | ≤ 0.25
WLRA | ≤ 0.25
MHMG | ≤ 0.25
YHKI | ≤ 0.25
MVCP | ≤ 0.25
PSLV | ≤ 0.25
WDHC | ≤ 0.25
DHKH | ≤ 0.25
EDVR | ≤ 0.25

Variant | enrichment ratio
EEMH | ≤ 0.25
TCMW | ≤ 0.25
DNRK | ≤ 0.25
KHMQ | ≤ 0.25
WNDN | ≤ 0.25
DETV | ≤ 0.25
KRTP | ≤ 0.25
TNPS | ≤ 0.25
AKVM | ≤ 0.25
EECR | ≤ 0.25
RWTH | ≤ 0.25
QFGK | ≤ 0.25
PVHL | ≤ 0.25
DVKF | ≤ 0.25
TKIY | 8.8
HGFT | ≤ 0.25
SAVI | 3.04
QSIV | ≤ 0.25
SHDY | ≤ 0.25
FATQ | ≤ 0.25
NDHS | ≤ 0.25
EQHD | ≤ 0.25
RDDL | ≤ 0.25
ITQK | ≤ 0.25

Variant | enrichment ratio
MRDY | ≤ 0.25
QNYG | ≤ 0.25
STTT | 8.65
DKMC | ≤ 0.25
SPKV | ≤ 0.25
NDTT | ≤ 0.25
SMGQ | 11.7
DFNA | ≤ 0.25
VWDR | ≤ 0.25
EFFT | ≤ 0.25
RYYH | ≤ 0.25
IWKS | ≤ 0.25
LHFW | ≤ 0.25
RQCD | ≤ 0.25
TINI | 7.09
WGKW | ≤ 0.25
MMEH | ≤ 0.25
LPRY | ≤ 0.25
WQIK | ≤ 0.25
VEYN | ≤ 0.25
VQCY | ≤ 0.25
IIWY | ≤ 0.25
SEYT | 6.93
WLWR | ≤ 0.25

Variant | enrichment ratio
DVVY | ≤ 0.25
YGVG | ≤ 0.25
STRH | ≤ 0.25
LKPV | ≤ 0.25
LRLD | ≤ 0.25
MCYR | ≤ 0.25
AITT | 3.34
GRCP | ≤ 0.25
RGVE | ≤ 0.25
PTPV | ≤ 0.25
SLYS | ≤ 0.25
TRCM | 12.4
PPPN | ≤ 0.25
AEKF | ≤ 0.25
HCHP | ≤ 0.25
LLLC | ≤ 0.25
QLVH | ≤ 0.25
DKHN | ≤ 0.25
EHVI | ≤ 0.25
ITTM | ≤ 0.25
HNAP | ≤ 0.25
TPPQ | ≤ 0.25
IVLE | ≤ 0.25
GMVY | ≤ 0.25

Variant | enrichment ratio
NADI | ≤ 0.25
LNSG | ≤ 0.25
MNTL | 3.28
RTPN | ≤ 0.25
EEWP | ≤ 0.25
GLLY | ≤ 0.25
VGDV | ≤ 0.25
RTPH | ≤ 0.25
LDGF | ≤ 0.25
MMHP | ≤ 0.25
EAPS | ≤ 0.25
KFPI | ≤ 0.25
HSQC | ≤ 0.25
NLSM | 0.258
WAVW | ≤ 0.25
TTHQ | 26.2
LCAM | ≤ 0.25
AWLG | ≤ 0.25
EMEK | ≤ 0.25
EMEW | ≤ 0.25
DIFC | ≤ 0.25
WRVC | ≤ 0.25
TLCL | 0.547
NMEK | ≤ 0.25

Variant | enrichment ratio
VEGD | ≤ 0.25
LSHQ | ≤ 0.25
DHQR | ≤ 0.25
DDTM | ≤ 0.25
FSTF | 0.466
SQWN | ≤ 0.25
VLTS | ≤ 0.25
PGIH | ≤ 0.25
KLNQ | ≤ 0.25
TYIL | ≤ 0.25
WTLK | ≤ 0.25
NIPW | ≤ 0.25
YWEI | ≤ 0.25
EESD | ≤ 0.25
YSIN | ≤ 0.25
DGPN | ≤ 0.25
LSIC | ≤ 0.25
IYSS | ≤ 0.25
MIAM | 0.625
PIGI | ≤ 0.25
ETLN | ≤ 0.25
VVGP | ≤ 0.25
IGAA | ≤ 0.25
EQNT | ≤ 0.25

Variant | enrichment ratio
VWEW | ≤ 0.25
YHDP | ≤ 0.25
FRLG | ≤ 0.25
FMDA | ≤ 0.25
KQNS | ≤ 0.25
TRHK | ≤ 0.25
MRSH | ≤ 0.25
QIKR | ≤ 0.25
IRTK | ≤ 0.25
KHTG | ≤ 0.25
LKKP | ≤ 0.25
IPVW | ≤ 0.25
QPRV | ≤ 0.25
VPCP | ≤ 0.25
NSAP | ≤ 0.25
SVSN | 6.15
TMPE | ≤ 0.25
DWSQ | ≤ 0.25
INYK | ≤ 0.25
KEWW | ≤ 0.25
QHID | ≤ 0.25
SETY | 15
WEEG | ≤ 0.25
EFRA | ≤ 0.25

Variant | enrichment ratio
WLAR | ≤ 0.25
ETYD | ≤ 0.25
YTEI | ≤ 0.25
QRFL | ≤ 0.25
PAEM | ≤ 0.25
GLMP | ≤ 0.25
TGEF | ≤ 0.25
GHWG | ≤ 0.25
QGIW | ≤ 0.25
AITP | ≤ 0.25
HNRF | ≤ 0.25
QKHL | ≤ 0.25
IKPE | ≤ 0.25
FHFW | ≤ 0.25
DGYN | ≤ 0.25
LFGE | ≤ 0.25
RMGA | ≤ 0.25
KKQF | ≤ 0.25
GNSY | 0.945
DYAK | ≤ 0.25
PKFV | ≤ 0.25
ISAD | ≤ 0.25
AMSI | 5.07
NHPK | ≤ 0.25

Variant | enrichment ratio
DIMM | ≤ 0.25
PWLD | ≤ 0.25
MVSQ | ≤ 0.25
DIHR | ≤ 0.25
SIGV | 8.2
VDTN | ≤ 0.25
SSRL | ≤ 0.25
ERNV | ≤ 0.25
NEPD | ≤ 0.25
LSRP | ≤ 0.25
RSAN | ≤ 0.25
RRWS | ≤ 0.25
YFMM | ≤ 0.25
VPTQ | ≤ 0.25
NNQC | ≤ 0.25
QNIT | ≤ 0.25
VMDW | ≤ 0.25
QKEH | 3.23
QKSA | ≤ 0.25
SYQW | ≤ 0.25
HHQG | ≤ 0.25
HEYK | ≤ 0.25
AKTV | 5.31
VWLI | ≤ 0.25

Variant | enrichment ratio
FGRD | ≤ 0.25
VCDS | ≤ 0.25
VRKH | ≤ 0.25
KMTH | ≤ 0.25
PNEF | ≤ 0.25
PFQM | ≤ 0.25
ILAK | ≤ 0.25
LCNT | ≤ 0.25
QLVG | ≤ 0.25
SVHF | ≤ 0.25
SGDY | ≤ 0.25
SDHA | ≤ 0.25
PDTD | ≤ 0.25
ERCD | ≤ 0.25
RDPE | ≤ 0.25
ANTW | ≤ 0.25
IILP | ≤ 0.25
LVQS | ≤ 0.25
IHKS | ≤ 0.25
PACD | ≤ 0.25
KSPD | ≤ 0.25
DTAN | ≤ 0.25
KGER | ≤ 0.25
IIWW | ≤ 0.25

Variant | enrichment ratio
MVKK | ≤ 0.25
DVPL | ≤ 0.25
NSNL | ≤ 0.25
ACNL | ≤ 0.25
YETY | ≤ 0.25
YMVE | ≤ 0.25
FCPN | ≤ 0.25
TCWS | 9.23
HATH | ≤ 0.25
AIHV | ≤ 0.25
ECTM | ≤ 0.25
MDLA | ≤ 0.25
SMGG | 1.44
MSMP | ≤ 0.25
YELA | ≤ 0.25
AQPH | ≤ 0.25
SLFK | ≤ 0.25
YNPL | ≤ 0.25
DKMR | ≤ 0.25
TMNY | 8.14
NIRS | ≤ 0.25
STNT | ≤ 0.25
TLTQ | 6.49
WIWS | ≤ 0.25

Variant | enrichment ratio
RELP | ≤ 0.25
KYWY | ≤ 0.25
AYKI | ≤ 0.25
KYWV | ≤ 0.25
VHDL | ≤ 0.25
IRCD | ≤ 0.25
LDAS | ≤ 0.25
GIMH | 10.8
FELW | ≤ 0.25
GTKC | ≤ 0.25
PMIW | ≤ 0.25
IEQD | ≤ 0.25
RVDD | ≤ 0.25
IVIR | ≤ 0.25
NTIL | ≤ 0.25
ASWR | ≤ 0.25
CSTF | 15.8
SDQN | ≤ 0.25
